Test results: the supplement of paper PMC6089552
Out of some 3,200 compounds screened, about 300 (9.4%) showed activity. The entries are a selection whose mix differs from that of the whole data set.

Test system: A673/TR/shEF
Test: cell viability (LOESS-normalised, relative to median of negative controls) (log2 ratio); higher = more viable cells (less compound effect), active = hit call of the paper (over 3 MAD below the median)
Details: treatment time: 72 h
Method in brief: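 A673/TR/shEF Ewing sarcoma cells were plated at 1,500 per well in 384-well plates and cultured with or without doxycycline, added 24 h before compounds, to induce EWS-FLI1 shRNA knockdown. Library compounds at two or more concentrations, alongside DMSO controls, were applied for three days. Cell viability was measured by CellTiter-Glo luminescence on an Envision reader. Readings were LOESS-corrected per plate, divided by the median of negative controls and log2-transformed, and hits were wells lying at least three median absolute deviations from the median of all screened wells.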

[1] = 0.25 µM, library screen: screen2, EWS-FLI1 expression: high (no doxycycline)
[2] = 0.25 µM, library screen: screen2, EWS-FLI1 expression: low (doxycycline-induced shRNA knockdown)
[3] = 2.5 µM, library screen: screen2, EWS-FLI1 expression: high (no doxycycline)
[4] = 2.5 µM, library screen: screen2, EWS-FLI1 expression: low (doxycycline-induced shRNA knockdown)
[5] = 0.25 µM, library screen: screen1, EWS-FLI1 expression: high (no doxycycline)
[6] = 0.25 µM, library screen: screen1, EWS-FLI1 expression: low (doxycycline-induced shRNA knockdown)
[7] = 2.5 µM, library screen: screen1, EWS-FLI1 expression: high (no doxycycline)
[8] = 2.5 µM, library screen: screen1, EWS-FLI1 expression: low (doxycycline-induced shRNA knockdown)
[9] = 0.103 µM, library screen: screen3, EWS-FLI1 expression: high (no doxycycline)
[10] = 0.103 µM, library screen: screen3, EWS-FLI1 expression: low (doxycycline-induced shRNA knockdown)
[11] = 0.308 µM, library screen: screen3, EWS-FLI1 expression: high (no doxycycline)
[12] = 0.308 µM, library screen: screen3, EWS-FLI1 expression: low (doxycycline-induced shRNA knockdown)
[13] = 0.926 µM, library screen: screen3, EWS-FLI1 expression: high (no doxycycline)
[14] = 0.926 µM, library screen: screen3, EWS-FLI1 expression: low (doxycycline-induced shRNA knockdown)
[15] = 2.8 µM, library screen: screen3, EWS-FLI1 expression: high (no doxycycline)
[16] = 2.8 µM, library screen: screen3, EWS-FLI1 expression: low (doxycycline-induced shRNA knockdown)
[17] = 8.3 µM, library screen: screen3, EWS-FLI1 expression: high (no doxycycline)
[18] = 8.3 µM, library screen: screen3, EWS-FLI1 expression: low (doxycycline-induced shRNA knockdown)
[19] = 25 µM, library screen: screen3, EWS-FLI1 expression: high (no doxycycline)
[20] = 25 µM, library screen: screen3, EWS-FLI1 expression: low (doxycycline-induced shRNA knockdown)

Measured: cell viability (log2)

Cc1cnc(NC(=O)C2=C(O)c3ccccc3S(=O)(=O)N2C)s1
inactive: [1] 0.16 | [2] 0.0995 | [3] 0.124 | [4] 0.125

O=C(O)CCCc1ccccc1
inactive: [5] 0.0233 | [6] 0.0277 | [7] 0.116 | [8] 0.0391

NC1=NCCN1CC(=O)O
inactive: [5] 0.117 | [6] 0.0775 | [7] 0.147 | [8] 0.164

CCOC(=O)c1c[nH]c2ccc(OC)cc2c1=O
inactive: [5] 0.15 | [6] 0.1 | [7] 0.112 | [8] 0.121

CC1(C)O[C@@H]2C[C@H]3[C@@H]4CCC5=CC(=O)C=C[C@]5(C)[C@@]4(F)[C@@H](O)C[C@]3(C)[C@]2(C(=O)CO)O1
inactive: [9] 0.0656 | [10] 0.104 | [5] 0.0257 | [6] -0.0565 | [11] 0.0762 | [12] 0.111 | [13] 0.162 | [14] 0.122 | [7] 0.09 | [8] -0.0295 | [15] 0.14 | [16] -0.00422 | [17] 0.119 | [18] 0.168 | [19] 0.259 | [20] 0.177

C[C@@H]1C[C@H]2[C@@H]3CCC4=CC(=O)C=C[C@]4(C)[C@@]3(F)[C@@H](O)C[C@]2(C)[C@@]1(O)C(=O)CO
inactive: [9] 0.0598 | [10] 0.177 | [5] 0.11 | [6] -0.0113 | [11] 0.111 | [12] 0.103 | [13] 0.0724 | [14] 0.168 | [7] 0.141 | [8] 0.0408 | [15] 0.0352 | [16] 0.11 | [17] 0.0764 | [18] 0.0807 | [19] 0.0649 | [20] 0.143

Cc1nnc(NS(=O)(=O)c2ccc(N)cc2)s1
inactive: [5] -0.0282 | [6] 0.0359 | [7] 0.106 | [8] 0.133

COc1cc(NS(C)(=O)=O)ccc1Nc1c2ccccc2nc2ccccc12
inactive: [1] 0.0671 | [2] 0.0709 | [3] 0.127 | [4] 0.101

CC(=O)Oc1cc2c(c(C)c1OC(C)=O)CC=C1[C@@]2(C)CC[C@@]2(C)[C@@H]3C[C@](C)(C(=O)O)CC[C@]3(C)CC[C@]12C
inactive: [5] 0.0258 | [6] 0.000386 | [7] 0.0381 | [8] 0.209

CC1CC(OC(=O)C(O)c2ccccc2)CC(C)(C)N1C (stereo not given)
inactive: [5] 0.097 | [6] 0.00654 | [7] 0.168 | [8] 0.0635

OC[C@H]1O[C@@H](n2cnc3c(NCc4ccco4)ncnc32)[C@H](O)[C@@H]1O
inactive: [5] 0.0742 | [6] 0.00708 | [7] 0.109 | [8] 0.0328

COc1ccc(CN2CCN(Cc3ccc(OC)c(OC)c3OC)CC2)cc1OC
inactive: [5] 0.061 | [6] 0.00924 | [7] 0.123 | [8] 0.0982

CCC(=O)c1c(O)cc(O)cc1O
inactive: [5] 0.0593 | [6] 0.0934 | [7] 0.167 | [8] 0.156

CC1Cc2ccccc2N1NC(=O)c1ccc(Cl)c(S(N)(=O)=O)c1 (stereo not given)
inactive: [9] 0.0865 | [10] 0.0898 | [5] 0.0475 | [6] 0.0682 | [11] 0.106 | [12] 0.108 | [13] 0.122 | [14] 0.127 | [7] 0.165 | [8] 0.191 | [15] 0.17 | [16] 0.0819 | [17] 0.13 | [18] 0.112 | [19] 0.152 | [20] 0.13

CC(C)(C)[C@]1(O)CCN2C[C@H]3c4ccccc4CCc4cccc(c43)[C@@H]2C1
inactive: [1] 0.211 | [2] 0.104 | [3] 0.187 | [4] 0.0457

CN1CCN(CCOc2cc(OC3CCOCC3)c3c(Nc4c(Cl)ccc5c4OCO5)ncnc3c2)CC1
active: [17] -0.339 | [18] -0.15 | [19] -0.476 | [20] -0.808

CO/N=C(\C(=O)N[C@@H]1C(=O)N2C(C(=O)O)=C(COC(N)=O)CS[C@H]12)c1ccco1
inactive: [5] 0.118 | [6] 0.097 | [7] 0.0783 | [8] 0.119

Nc1ccc(S(=O)(=O)Nc2ccnn2-c2ccccc2)cc1
inactive: [5] 0.0545 | [6] -0.0171 | [1] 0.053 | [2] 0.048 | [7] 0.14 | [8] 0.0403
active: [3] -0.179 | [4] -0.12

COc1c(O)cccc1O
inactive: [5] 0.0979 | [6] -0.025 | [7] 0.121 | [8] 0.06

O=C(O)C1=CCCNC1
inactive: [5] -0.0227 | [6] -0.0335 | [1] 0.149 | [2] -0.0225 | [7] 0.0184 | [8] 0.124 | [3] 0.0891 | [4] 0.0167

Cc1cc(CC(=O)O)n(C)c1C(=O)c1ccc(Cl)cc1
inactive: [5] -0.016 | [6] 0.0741 | [7] 0.104 | [8] 0.1

NCCNC(=O)c1ncsc1-c1cccc(F)c1
inactive: [1] 0.314 | [2] 0.116 | [4] 0.199
0.404: [3]

COc1ccccc1N1CCN(CCCCNS(=O)(=O)c2cccc3c(N(C)C)cccc23)CC1
inactive: [1] 0.171 | [2] 0.0777 | [3] 0.0423 | [4] 0.0929

O=C(O)C(O)C(O)C(O)C(O)C(=O)O (stereo not given)
inactive: [5] 0.0508 | [6] 0.00381 | [7] 0.102 | [8] 0.133

CC12CCC(CC1)C(C)(C)O2
inactive: [5] 0.137 | [6] 0.0292 | [7] 0.175 | [8] -0.00197

CC(C)(C)c1onc(OCP(=O)(O)O)c1CC(N)C(=O)O (stereo not given)
inactive: [1] -0.0656 | [2] 0.0767 | [3] 0.0137 | [4] 0.0837

C[C@H](CCC(=O)O)[C@H]1CC[C@H]2[C@@H]3CC[C@@H]4C[C@H](O)CC[C@]4(C)[C@H]3C[C@H](O)[C@]12C
inactive: [5] 0.0519 | [6] 0.0395 | [7] 0.109 | [8] 0.158

CC(C)C[C@@H]1NC(=O)[C@H](CCCN)NC(=O)[C@H](C(C)C)NC(=O)[C@H](Cc2ccc(O)cc2)N[C@@H](CCC(=O)O)C(=O)N[C@@H](CC(N)=O)C(=O)[C@@H](Cc2ccccc2)NC(=O)[C@H](Cc2ccccc2)NC(=O)[C@@H]2CCCN2C(=O)[C@@H](Cc2ccccc2)NC1=O
inactive: [6] -0.0111
active: [5] -0.767 | [7] -2.84 | [8] -2.45

Nc1ncnc2c1c(I)cn2[C@@H]1O[C@H](CO)[C@@H](O)[C@H]1O
active: [7] -1.08 | [8] -0.349 | 25 µM, library screen: screen1, EWS-FLI1 expression: high (no doxycycline) -2.42 | 25 µM, library screen: screen1, EWS-FLI1 expression: low (doxycycline-induced shRNA knockdown) -2.11
inactive: 0.025 µM, library screen: screen1, EWS-FLI1 expression: high (no doxycycline) 0.145 | 0.025 µM, library screen: screen1, EWS-FLI1 expression: low (doxycycline-induced shRNA knockdown) -0.151 | [5] -0.0341 | [6] -0.172

COc1ccc2cc(C(C)C(=O)O)ccc2c1 (stereo not given)
inactive: [5] 0.0554 | [6] 0.0714 | [7] 0.131 | [8] 0.033

CN(C)C(=O)Nc1ccc(Cl)c(Cl)c1
inactive: [5] 0.0696 | [6] 0.0695 | [7] 0.0795 | [8] 0.139

CCCC(=O)NCCc1c2n(c3ccc(OC)cc13)CCCc1ccccc1-2
inactive: [1] 0.11 | [2] 0.046 | [3] 0.0499 | [4] 0.00193

O=C1CC2(CCCC2)CC(=O)N1CCCCN1CCN(c2ncccn2)CC1
inactive: [1] 0.236 | [2] 0.106 | [3] 0.0827 | [4] 0.0819

CN/C(=C\[N+](=O)[O-])NCCSCc1csc(CN(C)C)n1
inactive: [9] 0.0355 | [10] 0.0488 | [11] 0.0529 | [12] 0.059 | [13] 0.057 | [14] 0.0342 | [15] 0.051 | [16] 0.073 | [17] -0.00893 | [18] 0.105 | [19] 0.0579 | [20] 0.109

Cc1cc(C)c(/C=C2\C(=O)Nc3ccccc32)[nH]1
inactive: [1] 0.184 | [2] -0.145 | [3] 0.119 | [4] -0.1

CC1(C)CC[C@]2(C(=O)O)CC[C@]3(C)C(=CC[C@@H]4[C@@]5(C)CC[C@H](O)[C@@](C)(CO)[C@@H]5CC[C@]43C)[C@@H]2C1
inactive: [5] 0.0983 | [6] 0.0272 | [7] 0.173 | [8] -0.0385

CCn1ccnc1CC1COc2ccccc2O1 (stereo not given)
inactive: [1] 0.127 | [2] 0.0875 | [3] 0.132 | [4] 0.116

COc1ccc(-c2c(OC)c3c(OC)c4c(cc3oc2=O)OC(C)(C)C=C4)cc1
inactive: [5] 0.0786 | [6] 0.00334 | [7] 0.211 | [8] 0.00828

C=CCN1CCc2c(cc(O)c(O)c2Br)[C@@H](c2ccccc2)C1
inactive: [1] 0.181 | [2] 0.124 | [3] 0.146 | [4] 0.0914

N[C@H](C(=O)O)c1cc(O)cc(O)c1
inactive: [1] 0.128 | [2] 0.0321 | [3] 0.139 | [4] 0.0849

Cc1cccc(C#Cc2ccccc2)n1
inactive: [1] 0.0606 | [2] 0.0657 | [3] 0.137 | [4] 0.111
